# From the supplement of paper PMC7125110
# ± gives the standard error. Variants at the background level are over-represented here.
# B1: glmS ribozyme (parent)
# chain: AUAAAAGCGCCAGAACUACAGAAAUGUAGUUGACGAGGAGGAGGUUUAUCGAAUUUUCGGCGGAUGCCUCCAAA
# Legend:
# Details in all cases: with glucosamine-6-phosphate
# glucosamine-6-phosphate [1] = variants of: B1; test: self-cleavage kobs at 40 uM GlcN6P; higher = faster cleavage; RNA array
# Method in brief: (§1)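 Barcoded ribozyme variants were transcribed in situ on sequenced MiSeq chips by E. coli RNA polymerase. At 37 °C, a hybridised Cy3 probe tracked them while glucosamine-6-phosphate (40 μM to 10 mM) in HEPES/KCl/Mg(OAc)2 buffer flowed in and tiles were imaged over ~14 h. Per-tile medians of signals normalised to baseline and to non-cleaving reference variants were fit to one- or two-exponential decays, giving kobs. kcat and KM came from weighted Michaelis–Menten fits across concentrations.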
# glucosamine-6-phosphate [2] = variants of: B1; test: self-cleavage kobs at 160 uM GlcN6P; higher = faster cleavage; RNA array
# Method in brief: as §1
# glucosamine-6-phosphate [3] = variants of: B1; test: self-cleavage kobs at 2500 uM GlcN6P; higher = faster cleavage; RNA array
# Method in brief: as §1
# glucosamine-6-phosphate [4] = variants of: B1; test: self-cleavage kobs at 10000 uM GlcN6P; higher = faster cleavage; RNA array
# Method in brief: as §1
# glucosamine-6-phosphate [5] = variants of: B1; test: self-cleavage kobs at 640 uM GlcN6P; higher = faster cleavage; RNA array
# Method in brief: as §1
Variant,self-cleavage kobs at 40 uM GlcN6P (glucosamine-6-phosphate [1]) [s⁻¹],self-cleavage kobs at 160 uM GlcN6P (glucosamine-6-phosphate [2]) [s⁻¹],self-cleavage kobs at 2500 uM GlcN6P (glucosamine-6-phosphate [3]) [s⁻¹],self-cleavage kobs at 10000 uM GlcN6P (glucosamine-6-phosphate [4]) [s⁻¹],self-cleavage kobs at 640 uM GlcN6P (glucosamine-6-phosphate [5]) [s⁻¹]
G43U G44A A48G C58A U69A C71G,< 1e-05,< 1e-05,< 1e-05,< 1e-05,
G43U G60A G63C,< 1e-05,,,,
G43U G63A,< 1e-05,,< 1e-05,,< 1e-05
G43U G66A,< 1e-05,,,,
G43U U45C,< 1e-05,,,,
G43U U46A,< 1e-05,< 1e-05,,,
G43U U49G,< 1e-05,< 1e-05,< 1e-05,< 1e-05,< 1e-05
G43U U65G,< 1e-05,,,3.53e-05 ± 1.1e-05,
G44A,< 1e-05,,,,
G44A A64U,< 1e-05,< 1e-05,< 1e-05,< 1e-05,< 1e-05
G44A C58U,< 1e-05,< 1e-05,< 1e-05,< 1e-05,< 1e-05
G44A C61A,< 1e-05,< 1e-05,< 1e-05,< 1e-05,< 1e-05
G44A C68A,< 1e-05,< 1e-05,< 1e-05,< 1e-05,< 1e-05
G44A G51A,< 1e-05,< 1e-05,< 1e-05,< 1e-05,< 1e-05
G44A G59U,< 1e-05,< 1e-05,< 1e-05,< 1e-05,< 1e-05
G44A G62C,< 1e-05,< 1e-05,< 1e-05,< 1e-05,< 1e-05
G44A G62U,< 1e-05,< 1e-05,< 1e-05,< 1e-05,< 1e-05
G44A G63A C71U,< 1e-05,,,< 1e-05,
G44A U47A C71A,< 1e-05,,< 1e-05,< 1e-05,< 1e-05
G44A U49A C50G,< 1e-05,< 1e-05,< 1e-05,< 1e-05,

Variant,self-cleavage kobs at 40 uM GlcN6P (glucosamine-6-phosphate [1]) [s⁻¹],self-cleavage kobs at 160 uM GlcN6P (glucosamine-6-phosphate [2]) [s⁻¹],self-cleavage kobs at 2500 uM GlcN6P (glucosamine-6-phosphate [3]) [s⁻¹],self-cleavage kobs at 10000 uM GlcN6P (glucosamine-6-phosphate [4]) [s⁻¹],self-cleavage kobs at 640 uM GlcN6P (glucosamine-6-phosphate [5]) [s⁻¹]
G44A U49G,< 1e-05,,,,< 1e-05
G44A U69C,< 1e-05,,,< 1e-05,< 1e-05
G44C A52G U65C C67U,< 1e-05,,< 1e-05,< 1e-05,< 1e-05
G44C A64G,< 1e-05,< 1e-05,< 1e-05,,< 1e-05
G44C A64U C71U,< 1e-05,,,,
G44C C50U C70G,< 1e-05,,,,< 1e-05
G44C C61U,< 1e-05,< 1e-05,< 1e-05,< 1e-05,< 1e-05
G44C C67U,5.1e-05 ± 1.3e-05,0.000153 ± 3.2e-05,0.00109 ± 0.00024,0.00168 ± 0.0003,0.000532 ± 0.00011
G44C G59U,< 1e-05,< 1e-05,< 1e-05,< 1e-05,< 1e-05
G44C G59U C70G,< 1e-05,< 1e-05,< 1e-05,< 1e-05,< 1e-05
G44C U46G,< 1e-05,,,,
G44C U49A,< 1e-05,,< 1e-05,< 1e-05,< 1e-05
G44C U55G,< 1e-05,< 1e-05,5.66e-05 ± 2.2e-05,4.43e-05 ± 2.1e-05,
G44C U65A,< 1e-05,< 1e-05,,,< 1e-05
G44U A48G,< 1e-05,< 1e-05,< 1e-05,< 1e-05,< 1e-05
G44U A52G,< 1e-05,,,,
G44U A52G A53U,< 1e-05,,,< 1e-05,
G44U A64C,< 1e-05,< 1e-05,< 1e-05,,< 1e-05
G44U C50G,< 1e-05,,,< 1e-05,
G44U C50U,< 1e-05,< 1e-05,< 1e-05,< 1e-05,< 1e-05
